Measurements as given in PMC3902928, “Nuclear ubiquitination by FBXL5 modulates Snail1 DNA binding and stability” (Nucleic Acids Research, 2013).
Results are given in words; binding and its absence hold for the method and conditions named. For some of these results: Binding seen in cells or lysates may run through a third protein. Some binding calls cover weakened binding; strength is not graded here. For some of these results: Where a sequence is shown, tags or fusion partners need not be part of it.

Chains of the proteins cited; added tags and fusions are not shown.
UniProt P63208: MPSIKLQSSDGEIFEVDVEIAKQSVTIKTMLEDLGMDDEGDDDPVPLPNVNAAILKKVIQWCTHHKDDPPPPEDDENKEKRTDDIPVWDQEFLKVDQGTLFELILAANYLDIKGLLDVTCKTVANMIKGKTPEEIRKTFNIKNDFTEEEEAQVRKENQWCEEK
UniProt O95863: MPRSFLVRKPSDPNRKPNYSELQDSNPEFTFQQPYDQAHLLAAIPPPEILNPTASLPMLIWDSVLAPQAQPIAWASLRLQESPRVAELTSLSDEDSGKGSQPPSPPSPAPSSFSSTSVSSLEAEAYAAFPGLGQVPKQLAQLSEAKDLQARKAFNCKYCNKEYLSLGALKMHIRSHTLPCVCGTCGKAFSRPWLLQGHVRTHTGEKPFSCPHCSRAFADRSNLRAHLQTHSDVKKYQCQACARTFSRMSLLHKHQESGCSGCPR
UniProt Q15672: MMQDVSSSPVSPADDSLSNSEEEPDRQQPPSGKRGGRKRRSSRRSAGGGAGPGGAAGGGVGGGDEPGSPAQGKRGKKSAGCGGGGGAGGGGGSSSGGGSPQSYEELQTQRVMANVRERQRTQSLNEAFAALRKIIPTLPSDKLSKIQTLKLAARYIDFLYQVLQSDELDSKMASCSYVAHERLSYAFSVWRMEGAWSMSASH

B1: 6xMyc-FBXL5 (pcDNA3-6xMyc-FBXL5) (protein, UniProt Q9UKA1 1-691)
chain: MAPFPEEVDVFTAPHWRMKQLVGLYCDKLSKTNFSNNNDFRALLQSLYATFKEFKMHEQIENEYIIGLLQQRSQTIYNVHSDNKLSEMLSLFEKGLKNVKNEYEQLNYAKQLKERLEAFTRDFLPHMKEEEEVFQPMLMEYFTYEELKDIKKKVIAQHCSQKDTAELLRGLSLWNHAEERQKFFKYSVDEKSDKEAEVSEHSTGITHLPPEVMLSIFSYLNPQELCRCSQVSMKWSQLTKTGSLWKHLYPVHWARGDWYSGPATELDTEPDDEWVKNRKDESRAFHEWDEDADIDESEESAEESIAISIAQMEKRLLHGLIHNVLPYVGTSVKTLVLAYSSAVSSKMVRQILELCPNLEHLDLTQTDISDSAFDSWSWLGCCQSLRHLDLSGCEKITDVALEKISRALGILTSHQSGFLKTSTSKITSTAWKNKDITMQSTKQYACLHDLTNKGIGEEIDNEHPWTKPVSSENFTSPYVWMLDAEDLADIEDTVEWRHRNVESLCVMETASNFSCSTSGCFSKDIVGLRTSVCWQQHCASPAFAYCGHSFCCTGTALRTMSSLPESSAMCRKAARTRLPRGKDLIYFGSEKSDQETGRVLLFLSLSGCYQITDHGLRVLTLGGGLPYLEHLNLSGCLTITGAGLQDLVSACPSLNDEYFYYCDNINGPHADTASGCQNLQCGFRACCRSGE
B2: Zeb1 (protein, UniProt P37275 1-1124)
chain: MADGPRCKRRKQANPRRNNVTNYNTVVETNSDSDDEDKLHIVEEESVTDAADCEGVPEDDLPTDQTVLPGRSSEREGNAKNCWEDDRKEGQEILGPEAQADEAGCTVKDDECESDAENEQNHDPNVEEFLQQQDTAVIFPEAPEEDQRQGTPEASGHDENGTPDAFSQLLTCPYCDRGYKRFTSLKEHIKYRHEKNEDNFSCSLCSYTFAYRTQLERHMTSHKSGRDQRHVTQSGCNRKFKCTECGKAFKYKHHLKEHLRIHSGEKPYECPNCKKRFSHSGSYSSHISSKKCISLIPVNGRPRTGLKTSQCSSPSLSASPGSPTRPQIRQKIENKPLQEQLSVNQIKTEPVDYEFKPIVVASGINCSTPLQNGVFTGGGPLQATSSPQGMVQAVVLPTVGLVSPISINLSDIQNVLKVAVDGNVIRQVLENNQANLASKEQETINASPIQQGGHSVISAISLPLVDQDGTTKIIINYSLEQPSQLQVVPQNLKKENPVATNSCKSEKLPEDLTVKSEKDKSFEGGVNDSTCLLCDDCPGDINALPELKHYDLKQPTQPPPLPAAEAEKPESSVSSATGDGNLSPSQPPLKNLLSLLKAYYALNAQPSAEELSKIADSVNLPLDVVKKWFEKMQAGQISVQSSEPSSPEPGKVNIPAKNNDQPQSANANEPQDSTVNLQSPLKMTNSPVLPVGSTTNGSRSSTPSPSPLNLSSSRNTQGYLYTAEGAQEEPQVEPLDLSLPKQQGELLERSTITSVYQNSVYSVQEEPLNLSCAKKEPQKDSCVTDSEPVVNVIPPSANPINIAIPTVTAQLPTIVAIADQNSVPCLRALAANKQTILIPQVAYTYSTTVSPAVQEPPLKVIQPNGNQDERQDTSSEGVSNVEDQNDSDSTPPKKKMRKTENGMYACDLCDKIFQKSSSLLRHKYEHTGKRPHECGICKKAFKHKHHLIEHMRLHSGEKPYQCDKCGKRFSHSGSYSQHMNHRYSYCKREAEERDSTEQEEAGPEILSNEHVGARASPSQGDSDERESLTREEDEDSEKEEEEEDKEMEELQEEKECEKPQGDEEEEEEEEEVEEEEVEEAENEGEEAKTEGLMKDDRAESQASSLGQKVGESSEQVSEEKTNEA
B3: GFP-Snail1NT (domain or fragment, UniProt Q02085 1-151)
chain: MPRSFLVRKPSDPRRKPNYSELQDACVEFTFQQPYDQAHLLAAIPPPEVLNPAASLPTLIWDSLLVPQVRPVAWATLPLRESPKAVELTSLSDEDSGKSSQPPSPPSPAPSSFSSTSASSLEAEAFIAFPGLGQLPKQLARLSVAKDPQSR

Legend:
[1] = biological target: T1, GST-FBXL5 (pGEX-6P-1) (UniProt Q9UKA1); experiment: pull-down; in vitro pull-down with GST-FBXL5, Snail1 T203E against wt (Supplementary Figure S5B); source of the Snail1 proteins not told
T1 sequence: B1 chain

[2] = biological target: T2, 3xFlag-FBXL5 (baculovirus) (UniProt Q9UKA1); experiment: co-purification of co-expressed proteins; Sf9 cells infected with 6xHis-Skp1, HA-Cullin1, Rbx1 and 3xFlag-FBXL5 baculovirus at ratio 1:2:1:1; purified as in ref. 21; which member was the bait is not told
T2 sequence: B1 chain

[3] = biological target: T1, GST-FBXL5 (pGEX-6P-1); experiment: pull-down; GST or GST-FBXL5 protein on glutathione-sepharose with extracts from transfected HEK293T cells; western blot; only the target purified
[4] = biological target: T3, endogenous FBXL5 (RWP-1 cells) (human (endogenous in RWP-1)) (UniProt Q9UKA1); experiment: co-IP; endogenous proteins in RWP-1 cells treated with MG132 and FAC; IP with rabbit anti-FBXL5 pAb, irrelevant antibody or no antibody as controls; western blot
T3 sequence: B1 chain

[5] = biological target: Snail1-HA (pcDNA3-Snail1-HA) (UniProt Q02085); experiment: co-IP; HEK293T transfected with Snail1-HA and Myc-FBXL5; 100 µM FAC (6 h) and 10 µM MG132 (4 h); cell extracts immunoprecipitated with rabbit anti-HA pAb, western blot; also with or without co-transfected Flag-Lats2 (Figure 7C)
[6] = biological target: Snail1-HA (pcDNA3-Snail1-HA) (UniProt Q02085); experiment: co-IP; HEK293T transfected with Snail1-HA and Myc-FBXL5, 100 µM FAC and 10 µM MG132; cytoplasmic fraction washed off, nuclear extracts immunoprecipitated with rabbit anti-HA pAb

Molecule | binding [3] | further results
Snail1 T203E (from UniProt Q02085 1-264) | – | binding [1]: binds
6xHis-T7-Skp1 (baculovirus) (from UniProt P63208 1-163) | – | binding [2]: binds
GFP-Snail1 (full-length) (from UniProt Q02085 1-264) | binds | –
endogenous Snail1 (RWP-1 cells) (from UniProt O95863 1-264) | – | binding [4]: binds
endogenous Skp1 (HEK293T cells) (from UniProt P63208 1-163) | binds | –
Snail1-HA (pcDNA3-Snail1-HA) (from UniProt Q02085 1-264) | binds | binding [1]: binds
GFP-Snail1CT (from UniProt Q02085 152-264) (domain or fragment) | binds | –
Twist1-V5 (from UniProt Q15672 1-202) | no binding | –
B1 | – | binding [5]: binds; binding [6]: binds
B2 | no binding | –
B3 | no binding | –
